# Where “and” joins values, the source holds several entries; their conditions need not be identical. Equal entries are not always repeated. In all, about 150,000 compounds went through this assay and about 6,500 (4.3%) were called active. The shares of active, inactive and inconclusive entries below differ from those in the screen. The call rests on the fitted dose curve; in most records, active means well fitted inhibition curve with a large enough effect (not every such curve was filed as active); inconclusive means small, poorly fitted or top-dose-only effect, or another doubt; inactive means no such curve, though single readings can be large or run the other way. A potency beside an inconclusive call is a rough fit, not a confirmed value. A structure can be active in one record and inactive in another.
# Molecular target: 15-hydroxyprostaglandin dehydrogenase [NAD(+)] (Homo sapiens) (UniProt P15428)
# UniProt P15428, sequence (P15428 whole entry, looked up): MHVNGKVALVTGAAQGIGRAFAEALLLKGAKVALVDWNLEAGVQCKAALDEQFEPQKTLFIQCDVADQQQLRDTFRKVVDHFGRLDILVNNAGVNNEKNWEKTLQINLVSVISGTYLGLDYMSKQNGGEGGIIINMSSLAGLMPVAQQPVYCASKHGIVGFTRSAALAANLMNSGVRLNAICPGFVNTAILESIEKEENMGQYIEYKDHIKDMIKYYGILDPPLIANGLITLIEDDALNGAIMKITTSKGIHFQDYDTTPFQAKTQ
# Experiment: qHTS Assay for Inhibitors of HPGD (15-Hydroxyprostaglandin Dehydrogenase)
# Conditions: purified HPGD, NADH fluorescence kinetic, PGE2 substrate; activity change, negative = inhibition: active compounds read low
# In short: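 20 nM HPGD preincubated 15 min at room temperature with compound in 50 mM Tris-HCl pH 8, 0.01% Tween 20. Started with 1 mM NAD+ and 30 uM prostaglandin E2; NADH fluorescence (360/450 nm) read 5 times over 30-s intervals, last minus first.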
# On the % scale 0 is the no-effect control and ±100 the full control effect; potency means the concentration at half of the fitted maximal effect; tags describe the fitted curve by direction and shape.
SMILES,Potency,"activity change, negative = inhibition"
Cc1cc(OCC(=O)NC2CCS(=O)(=O)C2)c2c3c(c(=O)oc2c1)CCC3 (centres undefined),"inconclusive: 20 µM [inhibitor, partial curve]",
COC(=O)C(N)CCCN=C(N)N[N+](=O)[O-] (centres undefined),,inactive: -5.36%
COC1=C[C@H]2[C@H]3Cc4ccc(OC)c(O)c4[C@@]2(CCN3C)CC1=O,,inactive: -16.4%
COC(=O)CCCc1[se]c2ccccc2c1I,active: 22.4 µM,
COc1ccc(-n2c(SC)nc3ccccc3c2=O)cc1,,inactive: 1.02%
CN1CCN(CCC(C#N)(c2ccccc2)c2ccccc2)CC1,,inactive: -10.3%
C[C@@H]1NCCc2cc(O)c(O)cc21,,inactive: -13.3%
O=c1c2ccccc2nc(N2CCCC2)n1-c1ccc(Cl)cc1,"inconclusive: 31.6 µM [inhibitor, partial curve]",
CCCOc1ccc2[nH]cc(C3=CCNCC3)c2n1,"inconclusive: 28.2 µM [inhibitor, partial curve]",
C=C(C)C1Cc2c(ccc3c(=O)c4c(oc23)COc2cc(OC)c(OC)cc2-4)O1 (centres undefined),,inactive: -12.3% and inactive: -8.93%
COc1ccc(Cc2nccc3cc(OC)c(OC)cc23)cc1OC,active: 14.1 µM,inactive: -6.38% and inactive: -19.2%
CCCc1[nH][nH]c(=O)c1C(c1ccccc1)C(C#N)C#N (centres undefined),"inconclusive: 22.4 µM [inhibitor, single point]",
O=C(N/N=C/c1c(O)n(CCC2=CCCCC2)c(=S)[nH]c1=O)c1ccccc1,"inconclusive: 20 µM [inhibitor, partial curve]",
COC(=O)N(c1ccc(OC)cc1)P1(=S)OCCC(C)O1 (centres undefined),active: 4.47 µM,
COc1ccc(-c2cc(C(F)(F)F)n3nc(C(=O)N4CCC5(CC4)OCCO5)cc3n2)cc1OC,active: 12.6 µM,
Cc1ccc(OCC(=O)NCCN2CCN(C(=O)COc3ccc(C)cc3)CC2)cc1,,inactive: -2.53%
O=C(c1cccn2c(=O)c3ccc(Cl)cc3nc12)N1CCC2(CC1)OCCO2,"inconclusive: 12.6 µM [inhibitor, partial curve]",
CC(C)C(OC(=O)c1ccco1)C(=O)NCc1ccco1 (centres undefined),"inconclusive: 15.8 µM [inhibitor, partial curve]",
CC(C)(C)n1c(O)c(C=Nc2ccc3c(c2)CCC3)c(=O)[nH]c1=O,"inconclusive: 31.6 µM [inhibitor, partial curve]",
Cc1c(OCC(F)(F)F)ccnc1CS(=O)c1nc2ccccc2[nH]1 (centres undefined),"inconclusive: 14.1 µM [inhibitor, partial curve, poor fit] and inconclusive: 22.4 µM [inhibitor, partial curve] and inconclusive: 25.1 µM [inhibitor, partial curve]",
CCCCCn1c(=O)c(C(=O)Nc2c(C)n(C)n(-c3ccccc3)c2=O)c(O)c2ccccc21,"inconclusive: 20 µM [inhibitor, partial curve]",
CC[C@@](O)(C(=O)O)c1cc2n(c(=O)c1CO)Cc1cc3ccccc3nc1-2,"inconclusive: 3.55 µM [inhibitor, partial curve]",
CN1CCN(c2ccc3nc(-c4ccc5nc(-c6ccc(O)cc6)[nH]c5c4)[nH]c3c2)CC1,"inconclusive: 3.16 µM [inhibitor, partial curve]",
O=c1ccc2cc(O[C@H]3OC(CO)C(O)C(O)C3O)c(O)cc2o1 (some centres undefined),"inconclusive: 14.1 µM [inhibitor, partial curve] and inconclusive: 631 nM [inhibitor, full curve]",
COC(=O)C[C@]1(C(=O)OC)CN(C#N)N(c2ccc(Cl)cc2)C12c1ccccc1-c1ccccc12,,inactive: -25.8%

SMILES,Potency,"activity change, negative = inhibition"
Cc1ccc(N2C(=O)NC(=O)/C(=C/c3ccc(OC(=O)c4cccs4)cc3)C2=O)cc1,active: 28.2 µM,
S=C(c1ccc(Cl)cc1)N1CCOCC1,active: 22.4 µM,
Fc1ccc(C(OCCN2CCN(CCCc3ccccc3)CC2)c2ccc(F)cc2)cc1,,inactive: -2.29% and inactive: -15.8% and inactive: -14.8%
O=c1[nH]c(=O)n(C2CCCCC2)c(O)c1C=Nc1ccc(N2CCOCC2)cc1,"inconclusive: 31.6 µM [inhibitor, partial curve]",
CCOC(=O)c1c(NS(=O)(=O)c2ccccc2)n(CCCOC)c2nc3ccccc3nc12,"inconclusive: 28.2 µM [inhibitor, partial curve]",
Cn1ncnc2c(=O)n(C)c(=O)nc1-2,,inactive: -23%
CC(=O)[O-].CC(=O)[O-].O.O.[Cd+2],,inactive: -1.73%
NC(Cc1cc(O)c(O)cc1O)C(=O)O (centres undefined),active: 4.47 µM,
c1ccc(-c2nnc(SCc3nc4ccccc4[nH]3)o2)cc1,"inconclusive: 28.2 µM [inhibitor, partial curve]",
COC(=O)c1cc(COc2cc(C)cc3oc(=O)c4c(c23)CCC4)c(C)o1,"inconclusive: 14.1 µM [inhibitor, partial curve]",
CC(=O)C1C2c3ccccc3OC1(C)N=c1s/c(=C/c3cn(C)nc3C)c(=O)n12 (centres undefined),active: 28.2 µM,
CCN(CC)c1ccc(/C=C2/C(=O)NC(=O)N(CC3CCCO3)C2=O)cc1 (centres undefined),active: 35.5 µM,
Oc1ccc2c3c1O[C@H]1c4c(c5ccccc5n4Cc4ccccc4)C[C@]4(O)[C@H](C2)N(CC2CC2)CC[C@@]314,,inactive: -5.62%
Cc1ccc(NC(=O)CSc2nnc([C@@H](N)Cc3c[nH]c4ccccc34)o2)c(C)c1,"inconclusive: 31.6 µM [inhibitor, partial curve]",
Cc1ccc(N(C)C(=O)Oc2cccc3ccc(C)nc23)cc1,,inactive: -1.1%
Cc1ccc(-c2nc(N3CCOCC3)s[n+]2-c2ccccc2)cc1,active: 0.158 µM,
COc1ccc(N2C(=O)CC(N3CC=C(c4ccccc4)CC3)C2=O)cc1 (centres undefined),"inconclusive: 39.8 µM [inhibitor, single point]",
CC1=C(O)C(=O)C=C2C1=CC=C1[C@]2(C)CC[C@@]2(C)C3C[C@](C)(C(=O)O)CC[C@@]3(C)CC[C@@]12C (some centres undefined),active: 2 µM,
CC/C=C\C/C=C\C/C=C\C/C=C\C/C=C\CCCC(=O)NCCO,,inactive: -6.5%
CC12CN3CN(C1)CC(C)(C3)C2=NO,,inactive: 2.88%
COP(=S)(OC)SCN1C(=O)c2ccccc2C1=O,active: 20 µM,
COC(=O)COc1cc(C)cc2oc(=O)c3c(c12)CCCC3,"inconclusive: 25.1 µM [inhibitor, partial curve]",
COc1cccc(N2C(=O)NC(=O)/C(=C/c3ccc4c5c(cccc35)CC4)C2=O)c1,"inconclusive: 28.2 µM [inhibitor, partial curve]",
Cc1cccc(N2C(=O)NC(=O)/C(=C\c3cnc(-c4ccccc4)nc3)C2=O)c1,active: 25.1 µM,
COc1cc(/C=C2\C(=O)NC(=O)N(c3ccccc3)C2=O)cc(OC)c1O,active: 31.6 µM,

SMILES,Potency,"activity change, negative = inhibition"
CCOc1cc(/C=C2/C(=O)NC(=O)N(c3ccc(CC)cc3)C2=O)ccc1OC(=O)c1cccs1,"inconclusive: 28.2 µM [inhibitor, single point]",
COc1ccc(C2SCC(=O)Nc3c2c(C)nn3-c2ccccc2)cc1 (centres undefined),active: 12.6 µM,
CC1=CC(c2ccccc2)NC(=S)N1 (centres undefined),active: 12.6 µM,
O=[As](O)(O)c1ccc(Cc2ccc([As](=O)(O)O)cc2)cc1,active: 3.55 µM,
CCCN1CCC2(CC1)NC(CO)(CO)CO2,,inactive: -7.81%
Oc1cc(Cl)ccc1Oc1ccc(Cl)cc1Cl,active: 7.94 µM,
O=C1/C(=C\c2cc3c(cc2Br)OCO3)N2CCC1CC2,"inconclusive: 39.8 µM [inhibitor, partial curve, poor fit]",
CC(C)n1cnc2c(C(=O)N[C@H]3CN4CCC3CC4)cc(Cl)cc21,,inactive: -7.38%
Oc1cc(Cl)c(Cl)c(Cl)c1,"inconclusive: 11.2 µM [inhibitor, single point]",
CC(=O)c1cccc(NC2=NCC(C)S2)c1 (centres undefined),active: 14.1 µM,
Cc1ccccc1N1C(=O)NC(=O)/C(=C\c2ccc3c(c2)CCCN3Cc2ccccc2)C1=O,active: 1.78 µM,
O=C(c1cc(Br)ccc1Cl)N1CCC2(CC1)OCCO2,,inactive: -17.8%
CCOC(=O)c1c(-c2ccccc2)oc2ccc(OC(=O)N(C)C)cc12,"inconclusive: 25.1 µM [inhibitor, partial curve]",
Cc1cc(OCCCC(=O)NCc2cccs2)ccc1Cl,,inactive: -17.2%
CCNC(C)(C)[C@@H](SS)c1ccc(Br)cc1,active: 3.16 µM,
Cc1c(N=Nc2c(O)[nH]c(=S)[nH]c2=O)c(=O)n(-c2ccccc2)n1C,active: 28.2 µM,
CC(C)N1C(=O)/C(=C/C=C/c2ccco2)C(=O)N(Cc2ccco2)C1=O,active: 31.6 µM,
CC(=O)Nc1ccc(OC(=O)c2ccccc2N)cc1,"inconclusive: 28.2 µM [inhibitor, partial curve]",
CC(C)n1c(=O)c(C=Nc2ccc(Cl)cc2)c(O)n(Cc2ccco2)c1=O,"inconclusive: 39.8 µM [inhibitor, partial curve]",
COC(=O)N(c1ccccc1)P1(=S)OCCO1,active: 8.91 µM,
COc1ccc2c(c1OC)C(=O)O[C@@H]2C1c2cc3c(cc2CCN1C)OCO3 (some centres undefined),,inactive: -2.36%
CC12CN3CC(C)(CN(C1)C3c1cccs1)C2O (centres undefined),,inactive: -13.1%
CC[C@@H]1CN2CC[C@@H]1C[C@H]2[C@H](O)c1ccnc2ccc(OC)cc12,"inconclusive: 39.8 µM [inhibitor, single point]",
